Source: PubChem BioAssay (Tox21)
Values joined by “and” are separate entries in the source; they are usually repeats but may differ in a detail not shown here. Equal entries are not always repeated. Inconclusive results, whose numbers are uncertain, are shown with a selection of clear calls. A potency beside an inconclusive call is a rough fit, not a confirmed value. More than one record can exist for a structure, and the calls need not agree. Active and inactive are the calls of the source. Unless noted, calls follow the shape of the dose curve; as a rule, active = well fitted cell-killing curve with a large enough effect in the repeat runs; inconclusive = weak or mixed curves, or effect the other way; inactive = flat fitted curve, though single readings scatter.
% is scaled to controls: 0 for no effect and ±100 for the full control effect; potency is read from the fitted curve at half-maximal effect; tags tell the direction and shape of the fitted curve or compound fluorescence and quenching.

Test system: not listed separately
Experiment: qHTS assay to identify small molecule agonists of the estrogen receptor beta (ER-beta) signaling pathway - cell viability counter screen (AID 1259380); also: nearly all actives have a fitted effect of over 30% in size
Conditions: ER-beta-bla HEK293T viability, CellTiter-Glo luminescence, 16 h; series mostly up to 92.4 µM
How it was run: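 Compounds dissolved in DMSO were pin-transferred onto ER-beta-UAS-bla HEK293T cells that had settled 6 hr, and exposure ran 16 hr at 37C. Following the reporter read, CellTiter-Glo luminescence after 30 min at room temperature indicated cytotoxicity.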
With `Cc1cccc(OCCOc2cccc(C)c2)c1` the Potency was “inactive”. With `CC(C)c1nc(CN(C)C(=O)N[C@H](C(=O)N[C@@H](Cc2ccccc2)C[C@H](O)[C@H](Cc2ccccc2)NC(=O)OCc2cncs2)C(C)C)cs1` the Potency was active: 15 µM. With `CC(=O)/C(C)=C/C1C(C)=CCCC1(C)C` (stereo not drawn) the Potency was inconclusive: 48.6 µM [rising, single point]. In the case of `CC(C=O)Cc1ccc(C(C)(C)C)cc1` (stereo not drawn), the Potency is reported as inconclusive: 54.5 µM [cytotoxic, partial curve, poor fit]. With `O=C1OC(=O)c2c(Br)c(Br)c(Br)c(Br)c21` the Potency was inconclusive: 30.6 µM [cytotoxic, partial curve]. With `CCO[Si](CCCNC(N)=O)(OCC)OCC` the Potency was inconclusive: 15.4 µM [cytotoxic, partial curve, poor fit]. For `CCO[Si](CC(C)C)(OCC)OCC`, the Potency was inconclusive: 27.3 µM [rising, full curve, poor fit]. With `CCNC(=O)NCc1cccc(Cl)c1` the Potency was inconclusive: 0.266 µM [rising, partial curve, poor fit]. With `O=C(O)CCCCCCCCCCCBr` the Potency was inconclusive: 61.3 µM [cytotoxic]. For `COC(=O)C1CCC(C(=O)OC)CC1` (stereo not drawn), the Potency was “inactive”. In the case of `CCOC(=O)C1OC1c1ccccc1` (stereo not drawn), the Potency is reported as inconclusive: 17.6 µM [cytotoxic, full curve] and inconclusive: 61.1 µM [cytotoxic, partial curve]. For `CC(=O)CC(c1ccccc1)c1c(O)c2ccccc2oc1=O` (stereo not drawn), the Potency was inconclusive: 77.3 µM [cytotoxic, single point] and inactive. For `CCCCCC(CO)CCC` (stereo not drawn), the Potency was inconclusive: 27.3 µM [rising, full curve, poor fit]. In the case of `CC(C)OC(=O)c1cc(C(=O)OC(C)C)cc([N+](=O)[O-])c1`, the Potency is reported as inconclusive: 78.8 µM [cytotoxic, single point]. With `C#C[C@]1(O)CC[C@H]2[C@@H]3[C@H](C)CC4=C(CCC(=O)C4)[C@H]3CC[C@@]21C` the Potency was “inactive”. In the case of `COC(=O)Nc1nc2ccc(S(=O)c3ccccc3)cc2[nH]1` (stereo not drawn), the Potency is reported as inconclusive: 34.3 µM [cytotoxic, single point] and inactive. With `C=CCc1ccccc1OCC(O)CNC(C)C` (stereo not drawn) the Potency was inconclusive: 26.6 µM [cytotoxic, partial curve]. With `CN1C(=O)c2ccccc2C1=O` the Potency was “inactive”. For `CCCCCCNC(=O)n1cc(F)c(=O)[nH]c1=O`, the Potency was inconclusive: 6.68 µM [cytotoxic, full curve]. With `CC1=C(CC=O)C(C)(C)CCC1` the Potency was “inactive”. In the case of `CCCCCCOC(C)=O`, the Potency is reported as active: 30.6 µM. For `Nc1ncnc2nc[nH]c12`, the Potency was “inactive”. In the case of `CCc1ccc(C(c2ccc(CC)cc2)C(Cl)Cl)cc1`, the Potency is reported as inconclusive: 69.7 µM [cytotoxic, single point]. With `O=S(=O)(Oc1ccc(Cl)cc1Cl)c1ccccc1` the Potency was inconclusive: 69.8 µM [cytotoxic, single point]. For `O=C=NCCCCCCN=C=O`, the Potency was inconclusive: 4.75 µM [cytotoxic, full curve]. With `CCCC(CC)CCCCCCCN` (stereo not drawn) the Potency was inconclusive: 14 µM [cytotoxic, partial curve]. With `CCCC(=O)C(=O)O` the Potency was “inactive”. For `NCc1ccc(S(N)(=O)=O)cc1`, the Potency was “inactive”. With `COc1cccc(OC)c1C(=O)O` the Potency was “inactive”. With `N=C1N=C(N)c2ccccc21` the Potency was inconclusive: 27.3 µM [cytotoxic, single point]. With `CCc1cc(Cl)c(OC)c(C(=O)NC[C@@H]2CCCN2CC)c1O` the Potency was inconclusive: 2.37 µM [cytotoxic, full curve]. For `CCOCCOCCO`, the Potency was “inactive”. With `NNC(=O)CP(=O)(c1ccccc1)c1ccccc1` the Potency was inconclusive: 29.8 µM [rising, partial curve, poor fit]. In the case of `CCOc1ccc2c(c1)C(C)=CC(C)(C)N2`, the Potency is reported as inconclusive: 43.1 µM [cytotoxic, partial curve]. For `CC1=CCC(=C(C)C)CC1`, the Potency was “inactive”. In the case of `Cc1occc1SSc1ccoc1C`, the Potency is reported as inconclusive: 54.5 µM [cytotoxic, partial curve]. For `NC(=O)c1ccccc1O`, the Potency was “inactive”.

Molecular target: Progesterone receptor (Homo sapiens) (UniProt P06401)
Chain of UniProt P06401 (P06401 whole entry, looked up): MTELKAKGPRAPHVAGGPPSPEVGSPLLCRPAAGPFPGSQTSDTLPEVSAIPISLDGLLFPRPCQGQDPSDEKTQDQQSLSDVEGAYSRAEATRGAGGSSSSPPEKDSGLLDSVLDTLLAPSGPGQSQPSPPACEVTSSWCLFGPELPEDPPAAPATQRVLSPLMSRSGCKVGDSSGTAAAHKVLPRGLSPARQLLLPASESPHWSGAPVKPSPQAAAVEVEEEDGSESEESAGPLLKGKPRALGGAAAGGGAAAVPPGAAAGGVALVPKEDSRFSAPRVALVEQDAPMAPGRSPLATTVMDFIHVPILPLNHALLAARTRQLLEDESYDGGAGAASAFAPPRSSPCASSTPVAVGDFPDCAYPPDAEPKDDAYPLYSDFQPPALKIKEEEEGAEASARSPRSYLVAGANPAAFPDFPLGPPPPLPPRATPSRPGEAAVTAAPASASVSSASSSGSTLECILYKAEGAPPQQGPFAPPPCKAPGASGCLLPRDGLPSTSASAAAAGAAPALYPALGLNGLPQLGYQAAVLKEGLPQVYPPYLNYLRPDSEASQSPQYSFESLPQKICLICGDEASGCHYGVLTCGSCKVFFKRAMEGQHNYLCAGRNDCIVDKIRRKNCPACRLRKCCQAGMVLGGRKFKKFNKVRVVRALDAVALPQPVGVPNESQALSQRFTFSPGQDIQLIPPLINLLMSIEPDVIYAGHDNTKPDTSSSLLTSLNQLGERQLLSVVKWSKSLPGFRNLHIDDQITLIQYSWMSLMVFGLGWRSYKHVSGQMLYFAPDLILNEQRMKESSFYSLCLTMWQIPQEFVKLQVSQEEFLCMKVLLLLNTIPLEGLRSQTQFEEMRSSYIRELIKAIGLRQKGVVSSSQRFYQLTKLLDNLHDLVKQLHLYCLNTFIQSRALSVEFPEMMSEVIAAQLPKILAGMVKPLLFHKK
Experiment: qHTS assay to identify small molecule agonists of the progesterone receptor (PR) signaling pathway (AID 1346784; calls by dose curve; also: nearly all actives have a fitted effect of over 30% in size)
Conditions: PR-UAS-bla HEK293T, beta-lactamase FRET ratio, 16 h; activation: at 92.4 µM (top of the series) unless noted
How it was run: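 Compounds were tested for PR agonism in HEK 293T cells bearing a beta-lactamase gene under UAS control. Treatment lasted 16 hr at 37C; signal came from fluorescence of a FRET substrate.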
With `CC(=O)/C(C)=C/C1C(C)=CCCC1(C)C` (stereo not drawn) the Potency was “inactive”. In the case of `CCO[Si](CC(C)C)(OCC)OCC`, the Potency is reported as “inactive”. With `C#C[C@]1(O)CC[C@H]2[C@@H]3[C@H](C)CC4=C(CCC(=O)C4)[C@H]3CC[C@@]21C` the Potency was active: 0.0188 µM. With `CN1C(=O)c2ccccc2C1=O` the Potency was active: 1.09 µM. In the case of `N=C1N=C(N)c2ccccc21`, the Potency is reported as inconclusive: 61.1 µM [falling, single point]. With `CC1=CCC(=C(C)C)CC1` the Potency was inconclusive: 0.154 µM [cytotoxic, single point].

Molecular target: Progesterone receptor (Homo sapiens) (UniProt P06401)
Experiment: qHTS assay to identify small molecule antagonists of the progesterone receptor (PR) signaling pathway (AID 1346795; active = well fitted inhibition curve with a large enough effect in the signal ratio in the repeat runs, not every such curve was filed as active; inconclusive = weak or mixed curves; the % refers to the signal ratio)
Conditions: PR-UAS-bla HEK293T, beta-lactamase FRET ratio, 16 h; activity change, negative = inhibition: at 92.4 µM (top of the series) unless noted
How it was run: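 In HEK293T cells bearing the PR-UAS-bla reporter, compound effects on promegestone-driven (1 nM) beta-lactamase expression are assessed after 16 hr using a fluorescent FRET substrate incubated 2 hr at room temperature.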
For `Cc1cccc(OCCOc2cccc(C)c2)c1`, the Potency was inconclusive: 57.8 µM [falling, partial curve]. In the case of `CC(C=O)Cc1ccc(C(C)(C)C)cc1` (stereo not drawn), the Potency is reported as “inactive”. For `O=C1OC(=O)c2c(Br)c(Br)c(Br)c(Br)c21`, the activity change, negative = inhibition was inconclusive: 0%. For `CCO[Si](CCCNC(N)=O)(OCC)OCC`, the activity change, negative = inhibition was inconclusive: 0.764%. With `CCO[Si](CC(C)C)(OCC)OCC` the Potency was “inactive”. For `CCNC(=O)NCc1cccc(Cl)c1`, the Potency was “inactive”. In the case of `O=C(O)CCCCCCCCCCCBr`, the Potency is reported as “inactive”. With `CC(=O)CC(c1ccccc1)c1c(O)c2ccccc2oc1=O` (stereo not drawn) the Potency was inconclusive: 68.9 µM [falling, single point]. With `CC(C)OC(=O)c1cc(C(=O)OC(C)C)cc([N+](=O)[O-])c1` the Potency was inconclusive: 70.2 µM. With `C#C[C@]1(O)CC[C@H]2[C@@H]3[C@H](C)CC4=C(CCC(=O)C4)[C@H]3CC[C@@]21C` the activity change, negative = inhibition was inconclusive: -21.5% [at 42.5 µM]. In the case of `CN1C(=O)c2ccccc2C1=O`, the activity change, negative = inhibition is reported as inconclusive: 9.53%. In the case of `CCCCCCNC(=O)n1cc(F)c(=O)[nH]c1=O`, the activity change, negative = inhibition is reported as inconclusive: -7.8% [at 42.5 µM]. With `CCCCCCOC(C)=O` the Potency was inconclusive: 48.6 µM [rising, partial curve]. For `O=S(=O)(Oc1ccc(Cl)cc1Cl)c1ccccc1`, the Potency was active: 8.78 µM and active: 12.2 µM. For `O=C=NCCCCCCN=C=O`, the Potency was inconclusive: 26.7 µM [rising, partial curve]. In the case of `CCCC(=O)C(=O)O`, the activity change, negative = inhibition is reported as inconclusive: 6.21%. With `NCc1ccc(S(N)(=O)=O)cc1` the Potency was “inactive”. In the case of `COc1cccc(OC)c1C(=O)O`, the Potency is reported as “inactive”. In the case of `N=C1N=C(N)c2ccccc21`, the Potency is reported as inconclusive: 68.6 µM [falling, single point]. With `Cc1occc1SSc1ccoc1C` the Potency was “inactive”.
